Counter-ions that a name gives are not always drawn. The list shows a part of the results. Repeats are few or missing, and single values can be far off.
What follows are compounds tested on HeLa VPS33A reporter cells (assay: relative cell viability (CellMask signal) vs DMSO (fraction of DMSO); HeLa model of a glycosaminoglycan (GAG) storage disease; KI is knock-in and KO knock-out; SDC1 is syndecan 1; higher = less cytotoxic). Conditions: 50 µM; 24 h.
For Cc1cc(-n2c(=O)[nH]c(=O)n(C)c2=O)ccc1Oc1ccc(SC(F)(F)F)cc1 [Toltrazuril], the relative cell viability was 1.1.
Work on C[C@H]1[C@H](C)CC[C@]2(C(=O)O[C@@H]3O[C@H](CO[C@@H]4O[C@H](CO)[C@@H](O[C@@H]5O[C@H](C)[C@H](O)[C@@H](O)[C@H]5O)[C@H](O)[C@H]4O)[C@@H](O)[C@H](O)[C@H]3O)CC[C@]3(C)C(=CC[C@@H]4[C@@]5(C)C[C@@H](O)[C@H](O)[C@@](C)(CO)[C@@H]5CC[C@]43C)[C@H]12 [Asiaticoside] yielded a relative cell viability of 0.944.
With Nc1ccccc1NC(=O)c1ccc(CNc2nccc(-c3cccnc3)n2)cc1 [Mocetinostat (MGCD0103, MG0103)] the relative cell viability was 0.521.
Compound COC(=O)Nc1nc2cc([S+]([O-])c3ccccc3)ccc2[nH]1 (stereo not drawn) [Oxfendazole] has a relative cell viability of 0.709.
With CCCC(=O)Nc1ncnc2c1ncn2[C@@H]1O[C@@H]2COP(=O)(O)O[C@H]2[C@H]1OC(=O)CCC [Dibutyryl-cAMP, sodium salt] the relative cell viability was 1.09.
OCc1ccccc1O[C@@H]1O[C@H](CO)[C@@H](O)[C@H](O)[C@H]1O [D-(-)-Salicin] gave a relative cell viability of 1.02.
Compound Cc1c(C(=O)Nc2ccc(N3C[C@@H](C)O[C@@H](C)C3)nc2)cccc1-c1ccc(OC(F)(F)F)cc1 [LDE225 (NVP-LDE225,Erismodegib)] has a relative cell viability of 1.02.
In the case of Cn1cnc2c(F)c(Nc3ccc(Br)cc3F)c(C(=O)NOCCO)cc21, the relative cell viability is reported as 1.15.
NC(=O)Cc1cccc(C(=O)c2ccccc2)c1N [Nepafenac] gave a relative cell viability of 1.16.
NCC[C@H](O)C(=O)N[C@@H]1C[C@H](N)[C@@H](O[C@H]2O[C@H](CN)[C@@H](O)[C@H](O)[C@H]2O)[C@H](O)[C@H]1O[C@H]1O[C@H](CO)[C@@H](O)[C@H](N)[C@H]1O [Amikacin disulfate] showed a relative cell viability of 1.24.
NC(=O)N[C@@H](CCC(=O)O)C(=O)O [N-Carbamyl-L-glutamic acid] gave a relative cell viability of 1.01.
With CCOCc1nc2c(N)nc3ccccc3c2n1CC(C)(C)O [Resiquimod (R-848)] the relative cell viability was 1.32.
With Cc1nnc(C(C)C)n1C1C[C@H]2CC[C@@H](C1)N2CC[C@H](NC(=O)C1CCC(F)(F)CC1)c1ccccc1 (stereo in doubt) [Maraviroc] the relative cell viability was 1.32.
Cc1[nH]c(=O)c(C#N)cc1-c1ccc2nccn2c1 [Olprinone Hydrochloride] was tested, and the relative cell viability was 1.21.
For C[C@H](CCC(=O)O)[C@H]1CC[C@H]2[C@@H]3C[C@H](O)[C@@H]4C[C@H](O)CC[C@]4(C)[C@H]3CC[C@]12C [Hyodeoxycholic acid], the relative cell viability was 1.09.
C[S+](CC[C@H](N)C(=O)[O-])C[C@H]1O[C@@H](n2cnc3c(N)ncnc32)[C@H](O)[C@@H]1O (stereo partly drawn) [Ademetionine] showed a relative cell viability of 0.992.
Compound O=Cc1ccc(OC2OC(CO)C(O)C(O)C2O)cc1 (stereo not drawn) [Helicid] has a relative cell viability of 0.97.
COc1ccc([C@]2(C#N)CC[C@@H](C(=O)O)CC2)cc1OC1CCCC1 [Cilomilast] gave a relative cell viability of 1.03.
Oc1c(Cl)cc(Cl)c(Cl)c1Cc1c(O)c(Cl)cc(Cl)c1Cl [Hexachlorophene] was tested, and the relative cell viability was 0.919.
Work on CCN(CC)C(=O)C1(c2ccccc2)CC1CN (stereo not drawn) [Milnacipran HCl] yielded a relative cell viability of 0.94.
With NS(=O)(=O)Cc1noc2ccccc12 [Zonisamide] the relative cell viability was 0.95.
Compound Cn1c(=O)c2[nH]cnc2n(C)c1=O [Aminophylline] has a relative cell viability of 1.16.
With CC(C)(Sc1cc(C(C)(C)C)c(O)c(C(C)(C)C)c1)Sc1cc(C(C)(C)C)c(O)c(C(C)(C)C)c1 [Probucol] the relative cell viability was 1.02.
Oc1c(Cl)cc(Cl)c2cccnc12 [Chloroxine] showed a relative cell viability of 1.02.
Nc1ncn([C@H]2C[C@H](O)[C@@H](CO)O2)c(=O)n1 gave a relative cell viability of 0.989.
Work on C[C@@H]1[C@H](O)[C@@H](C)/C=C/C=C/C=C/C=C/C=C/C=C/C=C/[C@H](O[C@@H]2O[C@H](C)[C@@H](O)[C@H](N)[C@@H]2O)C[C@@H]2O[C@](O)(C[C@@H](O)C[C@@H](O)[C@H](O)CC[C@@H](O)C[C@@H](O)CC(=O)O[C@H]1C)C[C@H](O)[C@H]2C(=O)O [Amphotericin B] yielded a relative cell viability of 1.02.
With CCCCCCOC(=O)NC(=N)c1ccc(NCc2nc3cc(C(=O)N(CCC(=O)OCC)c4ccccn4)ccc3n2C)cc1 [Dabigatran etexilate mesylate] the relative cell viability was 0.867.
Work on CN1CCN(c2nc(C3=C(c4c[nH]c5ccccc45)C(=O)NC3=O)c3ccccc3n2)CC1 [Sotrastaurin (AEB071)] yielded a relative cell viability of 1.37.

— the supplement of paper PMC12355420
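Note: primary screen of an FDA-approved drug library in HeLa reporter cells in 96-well format, CellMask signal normalized to DMSO-treated wells set as 1, under 0.5 deemed highly cytotoxic.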
